Assay results: the supplement of paper PMC11417369
Some of the results follow.

test system: PF3D7_0420300 AP2 domain 1 (GST-tagged); assay: gcPBM binding intensity (ln(normalized median fluorescence intensity)); higher = stronger DNA binding
In short: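 GST-tagged P. falciparum DNA-binding domains produced in E. coli were incubated for 1 h on an Agilent 4 × 180k array of primer-extended double-stranded 36-bp intergenic genomic probes with negative controls. Binding intensity is the highest Masliner-normalised natural-log median intensity across replicate spots of either probe orientation, with bound protein detected by Alexa488 anti-GST antibody at 488 nm.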

Row | Sequence | gcPBM binding intensity (ln)
1 | AAAATAATAAATAAATGTACATATATATATATATAT [XGTACX_site3078] | 9.1
2 | ATAAGATTATACAATTGTACGTTGTTCAAGATAAGG [XGTACX_site191] | 9.27
3 | AACTAATTCATGTTATATTAGATAAAAAAAAAAAAA [TGCATGCA_negctrl_site340] | 9.01
4 | AAATATATTATATGTACACACAAAATTAAGGGATAT [CACACA_site1375] | 9.89
5 | ATATTTTTTAATTTTACACACCATATAAAATAATTC [CACACA_site7339] | 9.37
6 | ATCAATACTTTTTTGGGTACATAAATATATATATAT [XGTACX_site8436] | 9.28
7 | TGTCATGATACATACACACACATACCCATACCCATA [CACACA_site5211] | 9.88
8 | AAATAAAGCATGTGCTGTACAAACGAAATATTTAAG [XGTACX_site3146] | 9.62
9 | TTTATGTGTATTAAGTGTACACATATAGTGTATTTT [XGTACX_site999] | 9.23
10 | ATATATAAGGAAAAAAGTACTTATATTTTTTTTTTG [XGTACX_site1909] | 9
11 | AACAAATGTTAAATGTTTAAGGAGAAAATAAAGACA [CACACA_negctrl_site1163] | 9.34
12 | GAAAACATAAAAATATGTACTTAAAATATATTTTGT [XGTACX_site868] | 9.17
13 | AAAACGAAACATCTGTGTATAAGTCTATATTATTAT [XGTACX_negctrl_site301] | 9.38
14 | GCTTCTTAATATCATACACACATAGATATATTTATA [CACACA_site5676] | 9.69
15 | GGAGACTTTGTATTGGGTACGTATTTCAATGCATGT [XGTACX_site1596] | 9.19
16 | CATACATACATACATACACACACATATATATATATA [CACACA_site8593] | 9.63
17 | AAACCTTTACATCGTTTGCACTATATTGATATGTGT [GTGCAC_site9686] | 9.46
18 | CTTCCTATATTTTACTGTACTTTTTTTTTTTTTTTT [XGTACX_site4016] | 9.43
19 | TTTTTTAACAAAAATAAAACATAACTGAATTAAAAG [GTGCAC_negctrl_site244] | 9.07

Row | Sequence | gcPBM binding intensity (ln)
20 | ACGAATTAAATTTGCTGTACCAAAAAGAAAACAATA [XGTACX_site5511] | 9.24
21 | TTTTTTTTTTTTCATTGTACTCTTAAAAATTCAACT [XGTACX_site3154] | 8.88
22 | TAAAATGTACAGGACGCACACACATATATATATATA [CACACA_site3673] | 9.67
23 | AACAACAACTAATATGCACACATTTAAAAACAAAAT [CACACA_site2440] | 9.78
24 | TATTTTTTTTTTTTTTTACACACTATAGGGAAAAAA [CACACA_site8583] | 9.06
25 | ATTAAAATTTAAAATACACACACATATATATAATAT [CACACA_site8612] | 9.94
26 | TTATAATGAAATATATTCTTATTCTTTTTTTTTTTT [GTGCAC_negctrl_site384] | 8.91
27 | TCATTTTAAAAAAATAGTACTTTAAGAAACTTTTAT [XGTACX_site602] | 8.63
28 | TTTTTTTTTTTTTTTTTTTATGTATACATATTTATA [TGCATGCA_negctrl_site234] | 8.84
29 | GATATTCTATAAAAAAGTACAAATATTTTAAAAAAT [XGTACX_site2177] | 9.09
30 | AGCATTAATTATTTCACACATATATATATATATATA [CACACA_site4889] | 9.4
31 | TAAATCCTTTACAACACACACACAAAAAAAAAAAAA [CACACA_site643] | 9.83
32 | TGTTTTTATTTATTCTGTACTGAAGAGAGTTATATA [XGTACX_site8859] | 9.1
33 | TTTAAATACAGACATACACACATACACCCACATATA [CACACA_site8078] | 9.81
34 | TAAGAAATAAATAGTACACACATAGACACAGACACA [CACACA_site4934] | 9.96
35 | ATATAAATTTTTTATGAACACACAAATACAGACACT [CACACA_site8848] | 9.69
36 | GTATATGAGAAAAAAAGTACATGCACAAAATGTATA [XGTACX_site6441] | 9.34
37 | ATAATTAAAAAAAATTGTACATATAAATAGAAGATT [XGTACX_site230] | 9.39
38 | AGATTAAAATAATATAAACACACATATACTTTTTTC [CACACA_site8085] | 9.49

Row | Sequence | gcPBM binding intensity (ln)
39 | AAAAAAAAAAGAATAGCACACACACCGATATAAATA [CACACA_site8111] | 10.1
40 | TAGGTATGCTCTCAATGTACATAAAATAATTTTACT [XGTACX_site6556] | 9.15
41 | ATCAGTGATTAGGTTATATATAAAAATGAACTAATA [GTGCAC_negctrl_site647] | 9.18
42 | ATATTCATGTTGATATGTACTTATTCTATATTGAAT [XGTACX_site8347] | 9.28
43 | TATATATATATATATATACACACTTGTGCAGAATAT [CACACA_site2216] | 9.39
44 | ATATTTATATATAGTAGTACTTTCAATAATTTAAAT [XGTACX_site7276] | 9.02
45 | AATACAAGAACTGACACACATACATACTACATTTTA [CACACA_site2829] | 9.75
46 | TCTTAAAATATATAGGTGCAAAAAAAAAAAAAAAAA | 8.65
47 | AAAAAATTAAAAATACGTACATATATACATATATAT [XGTACX_site4621] | 9.31
48 | TATGATATTTATATGCGTACTGAAGTATGCCTATTT [XGTACX_site6133] | 9.41
49 | AAAGAAAGAAGACACACACACATATATAAATATCAA [CACACA_site7715] | 10.1
50 | AGTTTTTATAAAAATAGTACATATTTATTAATCTGT [XGTACX_site5881] | 9.23
51 | TGCAGTCTGGAGAAACGTACACAGTATCTGGTAACC [XGTACX_site2543] | 9.21
52 | TTTTGTGCTTAAAAAAGTACAAAATATAAAAAAAAT [XGTACX_site7876] | 9.06
53 | CCCACAGACGGACACACACACACACCGACACATATA [CACACA_site4356] | 10.2
54 | AAAATTGAACCTGACAAGGTATTTTATTATTTATTA [TGCATGCA_negctrl_site181] | 9.04
55 | TTCTATTTTAATATCTGTACATAATAAAGATCCATT [XGTACX_site1142] | 8.99
56 | ATATGACATAAAACATGTACATGTTCATAAATATAT [XGTACX_site1923] | 9.34
